From the antibiotic and cytotoxicity screens of Wong et al. (2023) come the findings set out here.

This is one part of the list.

In this assay the test system is HepG2. Nature of the assay: cytotoxicity call (relative viability < 0.9). As to conditions: 10 µM.
As to `C[C@@H]1CN([C@H](C)CO)C(=O)Cc2cc(NC(=O)NC3CCCCC3)ccc2O[C@@H]1CN(C)S(C)(=O)=O`, the cytotoxicity call is “active”. As for `CC1CCN(S(=O)(=O)c2c[nH]cn2)CC1`, the entry is “inactive”. For `O=C1OCC=C[C@H]2O[C@@]34C=CCN(CCN5CCOCC5)C(=O)[C@H]3N(CCCO)C(=O)[C@@H]4[C@@H]12` the value was “inactive”; for `COc1ccc(NC(=O)Nc2ccc3c(c2)C(=O)N([C@@H](C)CO)C[C@@H](C)[C@@H](CN(C)C(=O)NC(C)C)OCCCC[C@@H](C)O3)cc1`, “inactive”. For `COc1ccc(S(=O)(=O)N(C)C[C@@H]2OCCCC[C@H](C)Oc3ccc(NC(=O)C4CCCCC4)cc3C(=O)N([C@@H](C)CO)C[C@H]2C)cc1` the value was “inactive”.

`CCS(=O)(=O)N1C[C@]2(C1)CN([C@H](CO)c1c2c2ccc(cc2n1C)OC)C(=O)Nc1c(noc1C)C`: the cytotoxicity call is “inactive”.

In the case of `C=CCCCCCCCCCCCc1ccco1`, the cytotoxicity call is “inactive”.

Regarding `C[C@H](CO)N1C[C@H](C)[C@@H](CN(C)S(=O)(=O)c2ccc(F)cc2)Oc2ccc(NC(=O)Cn3cnnn3)cc2CC1=O`, the cytotoxicity call was “inactive”. As for `Cc1ccc(S(=O)(=O)Nc2ccc3c(c2)C(=O)N([C@H](C)CO)C[C@@H](C)[C@H](CN(C)Cc2ccccc2)OCCCC[C@@H](C)O3)cc1`, the entry is “inactive”; as for `O=C(C[C@@H]1CC[C@H]2[C@@H](COC[C@@H](O)CN2S(=O)(=O)c2ccccc2F)O1)NCc1ccccc1Cl`, “inactive”. For `C[C@@H]1CN([C@H](C)CO)C(=O)c2cc(-c3ccc(C(=O)N(C)C)cc3)cnc2O[C@H]1CN(C)C(=O)c1cccnc1` the value was “inactive”.

As for `CCc1c(C)c2cc3c(-c4ccccc4)coc3cc2oc1=O`, the cytotoxicity call is “inactive”. For the compound `COc1ccc(NC(=O)N(C)C[C@H]2OCCCC[C@@H](C)Oc3ccc(NC(=O)C4CCCCC4)cc3C(=O)N([C@@H](C)CO)C[C@@H]2C)cc1`, the cytotoxicity call is “inactive”. As for `C[C@@H]1CN([C@H](C)CO)C(=O)Cc2cc(NS(=O)(=O)c3cn(C)cn3)ccc2O[C@H]1CN(C)S(=O)(=O)c1cccs1`, the entry is “inactive”; as for `CC(C)NC(=O)N(C)C[C@H]1OCCCC[C@H](C)Oc2ccc(NS(C)(=O)=O)cc2C(=O)N([C@H](C)CO)C[C@@H]1C`, “inactive”.

For `COc1ccc(S(=O)(=O)N(C)C[C@H]2OCCCC[C@@H](C)Oc3ccc(NC(=O)Nc4ccc(F)cc4)cc3C(=O)N([C@H](C)CO)C[C@@H]2C)cc1`, the cytotoxicity call is “active”. For the compound `C[C@@H]1CN([C@H](C)CO)C(=O)Cc2cc(NS(=O)(=O)c3cn(C)cn3)ccc2O[C@@H]1CN(C)C(=O)NC1CCCCC1`, the cytotoxicity call is “inactive”. In the case of `COC(=O)c1cccc(NC(=N)N=C(N)N)c1`, the cytotoxicity call was “inactive”. As for `C[C@@H]1CN([C@H](C)CO)C(=O)c2cc(NC(=O)Nc3ccc4c(c3)OCO4)ccc2O[C@H]1CN(C)C(=O)Nc1ccc(C(F)(F)F)cc1`, the cytotoxicity call was “inactive”. Regarding `C[C@@H]1CN([C@H](C)CO)C(=O)Cc2cc(NC(=O)Nc3ccccc3)ccc2O[C@@H]1CN(C)Cc1ccc(C(F)(F)F)cc1`, the cytotoxicity call was “active”.

For `Cc1noc(C)c1S(=O)(=O)Nc1ccc2c(c1)C(=O)N([C@H](C)CO)C[C@H](C)[C@@H](CN(C)C(=O)Nc1ccc(F)cc1)OCCCC[C@H](C)O2`, the cytotoxicity call is “inactive”. For `C[C@H]1CN([C@@H](C)CO)C(=O)c2cccc(NC(=O)c3nc4ccccc4s3)c2O[C@H]1CN(C)Cc1ccc(-c2ccccc2)cc1` the value was “inactive”; for `COc1ccc(CN(C)C[C@H]2Oc3ccc(NC(=O)Nc4ccc(C(F)(F)F)cc4)cc3CC(=O)N([C@H](C)CO)C[C@H]2C)cc1`, “active”. `CCN1CCN(C(=O)NC(C(=O)NC2C(=O)N3C2SC(C)(C)C3C(=O)[O-])c2ccccc2)C(=O)C1=O.[Na+]` (centres undefined): the cytotoxicity call is “inactive”. As for `C[C@@H]1CCCCO[C@H](CN(C)S(=O)(=O)c2ccc(Cl)cc2)[C@@H](C)CN([C@H](C)CO)C(=O)c2cc(NS(=O)(=O)c3ccc(Cl)cc3)ccc2O1`, the entry is “inactive”; as for `C[C@H]1CCCCO[C@@H](CN(C)C(=O)C2CCCCC2)[C@@H](C)CN([C@@H](C)CO)C(=O)c2cc(NC(=O)c3ccccc3)ccc2O1`, “inactive”. For `CC(C)(C)C(=O)C[C@@H](Nc1ccccc1)c1ccc(Cl)cc1` the value was “inactive”; for `COC(=O)CCCCCCC(=O)N/N=C/[C@H](O)[C@@H](O)[C@H](O[C@@H]1O[C@H](CO)[C@H](O)[C@H](O)[C@H]1O)[C@H](O)CO`, “inactive”. For `C[C@H](CO)N1C[C@H](C)[C@H](CN(C)Cc2ccc(C(F)(F)F)cc2)OCCCC[C@H](C)Oc2ccc(NC(=O)Nc3ccccc3)cc2C1=O` the value was “active”.
